Where a name gives a salt, the structure may show the parent alone. ± gives the standard deviation of the averaged measurements. This is one part of the list. Single values are uncertain, as repeats are few or missing.
Experiments:
Test in all cases: log2 surviving fraction relative to plate median (drug vs vehicle, or drug+dl922-947 vs dl922-947 alone); ovarian cancer lines: OVCAR4 is platinum-sensitive while Ov4Cis resists cisplatin and Ov4Carbo carboplatin; higher = more cell survival
Details in all cases: compound concentration: 10 uM, 192 h
OVCAR4 = test system: OVCAR4
Ov4Carbo = test system: Ov4Carbo
Ov4Cis = test system: Ov4Cis
[1] = dl922-947 oncolytic adenovirus co-treatment: MOI 10
[2] = dl922-947 oncolytic adenovirus co-treatment: none

SMILES	log2 surviving fraction (OVCAR4; [1])	log2 surviving fraction (OVCAR4; [2])	log2 surviving fraction (Ov4Carbo; [1])	log2 surviving fraction (Ov4Carbo; [2])	log2 surviving fraction (Ov4Cis; [1])	log2 surviving fraction (Ov4Cis; [2])
COc1ccc(CN2CCN(C(c3ccc(F)cc3)c3ccc(F)cc3)CC2)c(OC)c1OC [Lomerizine HCl]	-0.664 ± 0.41	0.162 ± 1.9	-0.0476	-0.588	-2.25	-2.4
C=C1C[C@@H]2[C@H](CC[C@]3(C)C(=O)CC[C@@H]23)[C@@]2(C)C=CC(=O)C=C12 [Exemestane]	0.374 ± 0.28	-1.3 ± 2.3	0.207	0.809	0.16	0.599
O=c1ccc2ccccc2o1 [Coumarin]	0.453 ± 1	0.616 ± 0.07	0.327	0.77	-0.0633	0.472
C/C(O)=C(\C#N)C(=O)Nc1ccc(C(F)(F)F)cc1 [Teriflunomide]	0.149 ± 0.74	-0.0276 ± 0.019	0.382	0.34	-0.829	0.0421
CO[C@H]1C[C@@H]2CC[C@@H](C)[C@@](O)(O2)C(=O)C(=O)N2CCCC[C@H]2C(=O)O[C@H]([C@H](C)C[C@@H]2CC[C@@H](OC(=O)C(C)(CO)CO)[C@H](OC)C2)CC(=O)[C@H](C)/C=C(\C)[C@@H](O)[C@@H](OC)C(=O)[C@H](C)C[C@H](C)/C=C/C=C/C=C/1C [Temsirolimus (Torisel)]	-2.12 ± 0.38	-6.34 ± 0.88	-2	-6.89	-1.74	-6.07
C=C[C@]1(C)C[C@@H](OC(=O)CS[C@@H]2C[C@H]3CC[C@@H](C2)N3C)[C@]2(C)[C@H](C)CC[C@]3(CCC(=O)[C@H]32)[C@@H](C)[C@@H]1O [Retapamulin]	-0.4 ± 0.35	-0.777 ± 0.86	-1.58	-0.269	-1.69	0.496
COc1ccc(-c2ccc3cc(C(=O)O)ccc3c2)cc1C12CC3CC(CC(C3)C1)C2 [Adapalene]	0.823 ± 0.84	0.699 ± 0.87	-2.58	-1.6	0.635	1.17
Cn1c(CCCC(=O)O)nc2cc(N(CCCl)CCCl)ccc21 [Bendamustine HCL]	0.373 ± 0.066	3.27 ± 2.6	0.752	0.884	0.438	0.698
OC[C@@H](O)[C@@H](O)[C@H](O)[C@@H](O)CO [Sorbitol (Glucitol)]	0.0159 ± 0.14	0.864 ± 0.96	0.938	0.717	0.148	-0.00773
COC(=O)Nc1nc2cc(C(=O)c3ccc(F)cc3)ccc2[nH]1 [Flubendazole (Flutelmium)]	-2.46 ± 1.4	-3.17 ± 0.88	-1.89	0.227	-2.88	-4.25
COc1cc(/C=C/C(=O)CC(=O)/C=C/c2ccc(O)c(OC)c2)ccc1O [Curcumin]	-0.345 ± 1.1	-3.01 ± 2	-0.792	-3.67	-1.55	-4.65
CCCCC(C)(O)C/C=C/[C@H]1[C@H](O)CC(=O)[C@@H]1CCCCCCC(=O)OC (mixture of isomers) [Misoprostol]	-0.18 ± 0.32	-1.48 ± 0.25	-0.791	-1.1	-1.04	-0.53
O=C(O)COCCN1CCN(C(c2ccccc2)c2ccc(Cl)cc2)CC1 (stereo not drawn) [Cetirizine Dihydrochloride]	-0.606 ± 0.26	-0.117 ± 0.054	-0.329	0.566	-0.32	0.389
C[C@]12CCC3=C4CCC(=O)C=C4CC[C@H]3[C@@H]1CC[C@@]2(O)CC#N [Dienogest]	1.56 ± 0.78	2.53 ± 2.6	1.24	2.68	0.852	0.908
NC(=O)N1c2ccccc2CC(=O)c2ccccc21 [Oxcarbazepine]	-0.0745 ± 0.86	0.118 ± 0.71	-0.823	-0.0812	-0.494	-0.122
Nc1c(CC(=O)O)cccc1C(=O)c1ccccc1 [Amfenac Sodium (monohydrate)]	0.0944 ± 0.4	-0.386 ± 1.3	-0.591	-7.54	-1.22	-0.121
Cc1ncc([N+](=O)[O-])n1CC(O)CCl (stereo not drawn) [Ornidazole]	0.298 ± 0.64	0.756 ± 0.41	1.35	0.676	0.664	-0.464

SMILES	log2 surviving fraction (OVCAR4; [1])	log2 surviving fraction (OVCAR4; [2])	log2 surviving fraction (Ov4Carbo; [1])	log2 surviving fraction (Ov4Carbo; [2])	log2 surviving fraction (Ov4Cis; [1])	log2 surviving fraction (Ov4Cis; [2])
NC12CC3CC(CC(C3)C1)C2 [Amantadine hydrochloride (Symmetrel)]	1.03 ± 0.7	1.26 ± 0.34	0.73	0.946	1.28	1.03
NC(=O)c1ncn([C@@H]2O[C@H](CO)[C@@H](O)[C@H]2O)c1O [Mizoribine (Bredinin)]	-0.329 ± 0.17	0.473 ± 0.23	-0.245	0.38	-0.0111	-0.703
CCCCOc1ccc(CC(=O)NO)cc1 [Bufexamac]	-2.46 ± 0.85	-1.67 ± 0.74	-0.02	-0.49	-0.849	-1.25
COc1c(C)c2c(c(O)c1C/C=C(\C)CCC(=O)OCCN1CCOCC1)C(=O)OC2 [Mycophenolate mofetil (CellCept)]	-3.18 ± 1	-5.19 ± 1.4	-3.41	-8.56	-3.17	-5.46
CC1(C)S[C@@H]2[C@H](NC(=O)[C@H](NC(=O)N3CCN(S(C)(=O)=O)C3=O)c3ccccc3)C(=O)N2[C@H]1C(=O)O [Mezlocillin Sodium]	0.169 ± 0.18	0.212 ± 0.58	0.62	1.06	-0.0925	0.444
Cc1ccc(S(=O)(=O)NC(=O)NN2CC3CCCC3C2)cc1 (stereo not drawn) [Gliclazide (Diamicron)]	0.295 ± 0.14	0.71 ± 0.091	-0.723	-1.04	0.254	0.41
Oc1ncnc2[nH]ncc12 [Allopurinol (Zyloprim)]	-0.0616 ± 0.77	-0.158 ± 0.12	2.6	0.448	0.368	-0.436
Nc1ccc(S(=O)(=O)Nc2nccs2)cc1 [Sulfathiazole]	0.215 ± 0.93	0.0463 ± 0.059	0.473	0.833	0.234	-0.417
CC(C)(C)C(=O)C(Oc1ccc(Cl)cc1)n1ccnc1 (stereo not drawn) [Climbazole]	-0.824 ± 0.76	-0.958 ± 0.97	1.02	0.191	-0.853	-0.00153
NC(CO)C(=O)NNCc1ccc(O)c(O)c1O (stereo not drawn) [Benserazide]	1.03 ± 0.32	1.34 ± 0.41	0.527	1.02	0.853	-0.339
C[C@H](NC(=O)Cc1cc(F)cc(F)c1)C(=O)N[C@H](C(=O)OC(C)(C)C)c1ccccc1	-0.685 ± 0.096	-0.624 ± 0.51	-0.155	0.36	-0.755	-0.456
Nc1cc(C(Cl)=C(Cl)Cl)c(S(N)(=O)=O)cc1S(N)(=O)=O [Clorsulon]	0.516 ± 0.75	0.555 ± 0.59	0.494	0.714	-0.182	0.574
CCOC(=O)[C@H](CCc1ccccc1)N[C@@H](C)C(=O)N1[C@H](C(=O)O)C[C@@H]2CCC[C@@H]21 [Ramipril (Altace)]	0.486 ± 0.1	0.605 ± 0.37	1.17	0.748	0.277	0.455
CC(=O)Oc1cc2c(s1)CCN(C(C(=O)C1CC1)c1ccccc1F)C2 (stereo not drawn) [Prasugrel (Effient)]	1.1 ± 1.4	4.09 ± 2.9	1.97	0.822	1.51	2.08
OC[C@H]1O[C@H](O[C@]2(CCl)O[C@H](CCl)[C@@H](O)[C@@H]2O)[C@H](O)[C@@H](O)[C@H]1Cl [Sucralose]	-0.0476 ± 0.24	-0.237 ± 0.057	-0.854	-0.307	0.652	-0.446
N#CC[C@H](C1CCCC1)n1cc(-c2ncnc3[nH]ccc23)cn1	-0.0833 ± 0.23	0.461 ± 0.032	-0.151	-0.0662	-0.154	0.251

Reference: the supplement of paper PMC8813932
